Results on 40 sequences are retold here after PMC12820563, “FoxP3 forms a head-to-head dimer in vivo and stabilizes its multimerization on adjacent microsatellites”.

Some of the results follow.

The test deals with T1, MBP-FoxP1dN (Mus musculus, UniProt P58462 326-579).
T1 sequence: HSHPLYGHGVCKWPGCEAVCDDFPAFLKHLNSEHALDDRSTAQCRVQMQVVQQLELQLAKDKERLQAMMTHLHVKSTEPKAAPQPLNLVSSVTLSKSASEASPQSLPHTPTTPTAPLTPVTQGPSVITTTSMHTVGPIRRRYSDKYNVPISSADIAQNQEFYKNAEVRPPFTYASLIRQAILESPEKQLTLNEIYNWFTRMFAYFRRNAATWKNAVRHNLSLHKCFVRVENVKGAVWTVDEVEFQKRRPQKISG
Briefly: PD-seq (MBP pull-down with sequencing); 20 mM Tris-HCl pH 7.5, 100 mM NaCl, 1.5 mM MgCl2, 0.4 uM protein, 0.1 uM dsDNA library, 30 min, room temperature, amylose pull-down; high values mean tight binding. The conditions noted are these: protein: recombinant; tags: His6-MBP; chain copies: 2; dsDNA, one strand shown. In outline:
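Binding is reads-per-million enrichment of pull-down over input, with replicates pooled. It comes from 30 min room-temperature incubation in Tris pH 7.5 buffer with NaCl and MgCl2 of 0.4 µM His6-MBP-tagged, N-terminally truncated mouse FoxP3 or FoxP1 fragment from E. coli with 0.1 µM Klenow-filled degenerate double-stranded DNA library, followed by amylose resin capture, three washes and Illumina sequencing of the released DNA.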
On to “GATGATTGTTCTCCCAGCTGATGAATTTCTTGTATCGAGTAAACAAATTTTCCTAATCTTTCTGTTCAAGCGCCATCTAC”, for which the binding signal is 1.06 RPM ratio (pull-down/input).
On to “GATGATTGTTCTCCCAGCTGATGAATTATTTAAATCGAGTAAACAAATTTTCCTAATCTTTCTGTTCAAGCGCCATCTAC”, for which the binding signal is 1.24 RPM ratio (pull-down/input).
On to “GATGATTGTTCTCCCAGCTGATGAATTAATCGTTTCGAGTAAACAAATTTTCCTAATCTTTCTGTTCAAGCGCCATCTAC”, for which the binding signal is 1.02 RPM ratio (pull-down/input).
The same measure for “GATGATTGTTCTCCCAGCTGATGAATTAGTAATCTCGAGTAAACAAATTTTCCTAATCTTTCTGTTCAAGCGCCATCTAC”: 1.04 RPM ratio (pull-down/input).
Turning to “GATGATTGTTCTCCCAGCTGATGAATTTAGTGAGTCGAGTAAACAAATTTTCCTAATCTTTCTGTTCAAGCGCCATCTAC”, the binding signal is 0.888 RPM ratio (pull-down/input).
With “GATGATTGTTCTCCCAGCTGATGAATTTCCTTCTTCGAGTAAACAAATTTTCCTAATCTTTCTGTTCAAGCGCCATCTAC”, the binding signal is 0.842 RPM ratio (pull-down/input).
The value for “GATGATTGTTCTCCCAGCTGATGAATTCAACTTTTCGAGTAAACAAATTTTCCTAATCTTTCTGTTCAAGCGCCATCTAC” was 0.904 RPM ratio (pull-down/input).
As to “GATGATTGTTCTCCCAGCTGATGAATTGCCCTTATCGAGTAAACAAATTTTCCTAATCTTTCTGTTCAAGCGCCATCTAC”, the binding signal is 1.02 RPM ratio (pull-down/input).
For “GATGATTGTTCTCCCAGCTGATGAATTTTACATATCGAGTAAACAAATTTTCCTAATCTTTCTGTTCAAGCGCCATCTAC”, the binding signal is 0.97 RPM ratio (pull-down/input).
As to “GATGATTGTTCTCCCAGCTGATGAATTATTGATTTCGAGTAAACAAATTTTCCTAATCTTTCTGTTCAAGCGCCATCTAC”, the binding signal is 1.72 RPM ratio (pull-down/input).
On to “GATGATTGTTCTCCCAGCTGATGAATTCGCATTCTCGAGTAAACAAATTTTCCTAATCTTTCTGTTCAAGCGCCATCTAC”, for which the binding signal was 1.18 RPM ratio (pull-down/input).
On to “GATGATTGTTCTCCCAGCTGATGAATTAACAACTTCGAGTAAACAAATTTTCCTAATCTTTCTGTTCAAGCGCCATCTAC”, for which the binding signal was 1.27 RPM ratio (pull-down/input).
Consider “GATGATTGTTCTCCCAGCTGATGAATTTTGTATCTCGAGTAAACAAATTTTCCTAATCTTTCTGTTCAAGCGCCATCTAC”, for which the binding signal was 1.39 RPM ratio (pull-down/input).
For “GATGATTGTTCTCCCAGCTGATGAATTTTCGCGATCGAGTAAACAAATTTTCCTAATCTTTCTGTTCAAGCGCCATCTAC”, the binding signal was 0.884 RPM ratio (pull-down/input).
The same measure for “GATGATTGTTCTCCCAGCTGATGAATTGCGGTTGTCGAGTAAACAAATTTTCCTAATCTTTCTGTTCAAGCGCCATCTAC”: 1.24 RPM ratio (pull-down/input); for “GATGATTGTTCTCCCAGCTGATGAATTCGCCAACTCGAGTAAACAAATTTTCCTAATCTTTCTGTTCAAGCGCCATCTAC”: 0.852 RPM ratio (pull-down/input); for “GATGATTGTTCTCCCAGCTGATGAATTACTACCATCGAGTAAACAAATTTTCCTAATCTTTCTGTTCAAGCGCCATCTAC”: 1.13 RPM ratio (pull-down/input).
As for “GATGATTGTTCTCCCAGCTGATGAATTCTGTGACTCGAGTAAACAAATTTTCCTAATCTTTCTGTTCAAGCGCCATCTAC”, the binding signal is 0.875 RPM ratio (pull-down/input).
With “GATGATTGTTCTCCCAGCTGATGAATTTAACACGTCGAGTAAACAAATTTTCCTAATCTTTCTGTTCAAGCGCCATCTAC”, the binding signal was 0.996 RPM ratio (pull-down/input).
The same measure for “GATGATTGTTCTCCCAGCTGATGAATTCCTTCCCTCGAGTAAACAAATTTTCCTAATCTTTCTGTTCAAGCGCCATCTAC”: 0.768 RPM ratio (pull-down/input); for “GATGATTGTTCTCCCAGCTGATGAATTGGGAACCTCGAGTAAACAAATTTTCCTAATCTTTCTGTTCAAGCGCCATCTAC”: 0.808 RPM ratio (pull-down/input); for “GATGATTGTTCTCCCAGCTGATGAATTTAAGACGTCGAGTAAACAAATTTTCCTAATCTTTCTGTTCAAGCGCCATCTAC”: 0.87 RPM ratio (pull-down/input).
With “GATGATTGTTCTCCCAGCTGATGAATTATGAGTCTCGAGTAAACAAATTTTCCTAATCTTTCTGTTCAAGCGCCATCTAC”, the binding signal is 0.886 RPM ratio (pull-down/input).
In the case of “GATGATTGTTCTCCCAGCTGATGAATTAGACACCTCGAGTAAACAAATTTTCCTAATCTTTCTGTTCAAGCGCCATCTAC”, the binding signal was 0.886 RPM ratio (pull-down/input).
Consider “GATGATTGTTCTCCCAGCTGATGAATTATGACCCTCGAGTAAACAAATTTTCCTAATCTTTCTGTTCAAGCGCCATCTAC”, for which the binding signal was 0.943 RPM ratio (pull-down/input).
Regarding “GATGATTGTTCTCCCAGCTGATGAATTGCGGCCTTCGAGTAAACAAATTTTCCTAATCTTTCTGTTCAAGCGCCATCTAC”, the binding signal is 0.991 RPM ratio (pull-down/input).
The same measure for “GATGATTGTTCTCCCAGCTGATGAATTGCTGCCTTCGAGTAAACAAATTTTCCTAATCTTTCTGTTCAAGCGCCATCTAC”: 1.06 RPM ratio (pull-down/input); for “GATGATTGTTCTCCCAGCTGATGAATTAGGGTACTCGAGTAAACAAATTTTCCTAATCTTTCTGTTCAAGCGCCATCTAC”: 0.884 RPM ratio (pull-down/input).
On to “GATGATTGTTCTCCCAGCTGATGAATTAACGTTGTCGAGTAAACAAATTTTCCTAATCTTTCTGTTCAAGCGCCATCTAC”, for which the binding signal was 1.07 RPM ratio (pull-down/input).
Consider “GATGATTGTTCTCCCAGCTGATGAATTCCGGATATCGAGTAAACAAATTTTCCTAATCTTTCTGTTCAAGCGCCATCTAC”, for which the binding signal is 0.794 RPM ratio (pull-down/input).
Turning to “GATGATTGTTCTCCCAGCTGATGAATTTGTTCGCTCGAGTAAACAAATTTTCCTAATCTTTCTGTTCAAGCGCCATCTAC”, the binding signal was 1.07 RPM ratio (pull-down/input).
Take “GATGATTGTTCTCCCAGCTGATGAATTTCATTCGTCGAGTAAACAAATTTTCCTAATCTTTCTGTTCAAGCGCCATCTAC”: the binding signal is 0.801 RPM ratio (pull-down/input).
Take “GATGATTGTTCTCCCAGCTGATGAATTGGGACGATCGAGTAAACAAATTTTCCTAATCTTTCTGTTCAAGCGCCATCTAC”: the binding signal is 0.912 RPM ratio (pull-down/input).
As for “GATGATTGTTCTCCCAGCTGATGAATTGGCTAGATCGAGTAAACAAATTTTCCTAATCTTTCTGTTCAAGCGCCATCTAC”, the binding signal was 0.877 RPM ratio (pull-down/input).
For the sequence “GATGATTGTTCTCCCAGCTGATGAATTACAAGATTCGAGTAAACAAATTTTCCTAATCTTTCTGTTCAAGCGCCATCTAC”, the binding signal is 1.28 RPM ratio (pull-down/input).
Regarding “GATGATTGTTCTCCCAGCTGATGAATTTTTAGATTCGAGTAAACAAATTTTCCTAATCTTTCTGTTCAAGCGCCATCTAC”, the binding signal was 0.869 RPM ratio (pull-down/input).
For “GATGATTGTTCTCCCAGCTGATGAATTTCACTCCTCGAGTAAACAAATTTTCCTAATCTTTCTGTTCAAGCGCCATCTAC”, the binding signal is 0.84 RPM ratio (pull-down/input).
With “GATGATTGTTCTCCCAGCTGATGAATTAAGGCATTCGAGTAAACAAATTTTCCTAATCTTTCTGTTCAAGCGCCATCTAC”, the binding signal is 1.13 RPM ratio (pull-down/input).
Consider “GATGATTGTTCTCCCAGCTGATGAATTCCGAAACTCGAGTAAACAAATTTTCCTAATCTTTCTGTTCAAGCGCCATCTAC”, for which the binding signal was 0.829 RPM ratio (pull-down/input).
With “GATGATTGTTCTCCCAGCTGATGAATTATCGGAATCGAGTAAACAAATTTTCCTAATCTTTCTGTTCAAGCGCCATCTAC”, the binding signal was 1.11 RPM ratio (pull-down/input).
